23 sequences from PMC7819943, “Rice protein-binding microarrays: a tool to detect cis-acting elements near promoter regions in rice” can be followed below.

The list shows a part of the results.

The target in the assay is T1, OsWOX13 (Oryza sativa, UniProt Q5QMM3 1-267).
T1 sequence: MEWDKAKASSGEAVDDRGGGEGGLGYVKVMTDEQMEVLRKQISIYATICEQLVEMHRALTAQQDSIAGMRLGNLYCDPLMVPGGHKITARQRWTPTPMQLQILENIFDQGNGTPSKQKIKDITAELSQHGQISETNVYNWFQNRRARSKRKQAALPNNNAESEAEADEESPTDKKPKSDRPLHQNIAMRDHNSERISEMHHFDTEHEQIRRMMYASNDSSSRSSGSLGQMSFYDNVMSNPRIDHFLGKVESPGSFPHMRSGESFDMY
Put plainly: protein-binding microarray (RPBM); PBS, 2% BSA, 51.3 ng/ul salmon testes DNA, 50 uM zinc acetate, 200 nM TF, 25 C, 1 h; high values mean tight binding. The following applies: protein: recombinant; tags: N-terminal polyhistidine and DsRed monomer fusion (pET32a); label: CyDye5-dUTP incorporated in the synthesized complementary strand; 3' TTTTT single-stranded linker to array surface; dsDNA, one strand shown. In a few lines: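 The binding signal is fluorescence intensity per array feature (arbitrary units). Readings came from an Axon 4000B scanner after a washed, 2% BSA-blocked, double-stranded custom Agilent array had been incubated for 1 h at 25 °C with 200 nM protein and 50 µM zinc acetate. The protein was a Ni–NTA-purified transcription factor fused N-terminally to polyhistidine and DsRed, expressed in E. coli BL21-CodonPlus.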
In the case of “CGTGTGAACTAATTACTTCAGTTACCATAAATATCCTGCACGGAGTCACCTAGTGCAG”, the binding signal is 6760 fluorescence intensity (a.u.).
To “TGAGGGATAATTATCCCTTGATGTTATTGGTCGGAGTACCCGGAGTCACCTAGTGCAG” belongs 18000 fluorescence intensity (a.u.); to “TTATGAATAATCAGCATGTGTAATTAGTTAGTTCTATGCACGGAGTCACCTAGTGCAG”, 12400 fluorescence intensity (a.u.).
The same measure for “GCCTTGATTAAGAGAGTAATGCAGCTATGGCAATACTGCCCGGAGTCACCTAGTGCAG”: 19600 fluorescence intensity (a.u.).
“AATCCCATCTAATTAAATTAAACGGTTGATATTATTGTTTCGGAGTCACCTAGTGCAG”: the binding signal is 9480 fluorescence intensity (a.u.).
The same measure for “CTCCATGATTTGACAATGTGGTGCTACAGTAAATATTTGCCGGAGTCACCTAGTGCAG”: 18300 fluorescence intensity (a.u.); for “TTTGCTGTCAAATTTTGGTAACTATATAAGAAATCCTGCCCGGAGTCACCTAGTGCAG”: 3280 fluorescence intensity (a.u.); for “ATTAAAGAGGATTGAAAGAGATTGAGGGAGAATAATTTCACGGAGTCACCTAGTGCAG”: 8540 fluorescence intensity (a.u.).
The same measure for “GAATGATTGGGGTTACGTGATGACAGTATGTGGTACTCGACGGAGTCACCTAGTGCAG”: 48500 fluorescence intensity (a.u.); for “GGATTTAATTTACACTGTAGACAAAACATAAGGCCTTTTGCGGAGTCACCTAGTGCAG”: 19200 fluorescence intensity (a.u.).
To “CTAAGCTAATTGTCAGCTCAGTAGTCGGAGCGGGTGGACCCGGAGTCACCTAGTGCAG” belongs 3680 fluorescence intensity (a.u.); to “TTGCACAGTTTACACGTAAATTACGAGATAAATCTTTTGACGGAGTCACCTAGTGCAG”, 7040 fluorescence intensity (a.u.); to “ATAATTAATTTAGTGAGTAAAATCATTTAAAGTTTGATAACGGAGTCACCTAGTGCAG”, 29300 fluorescence intensity (a.u.).
Turning to “GACTGGGAGGATGAGGGGTGGGTGGGTGTGGCTGCTTCTGCGGAGTCACCTAGTGCAG”, the binding signal is 4110 fluorescence intensity (a.u.).
The same measure for “ATGATCCTATAAATTACCATATTATTGTGTGTTTTGCACGCGGAGTCACCTAGTGCAG”: 3770 fluorescence intensity (a.u.); for “GTCAATCATGGAGTAATTAGGCTCAAAAGATTCGTCTTGCCGGAGTCACCTAGTGCAG”: 21200 fluorescence intensity (a.u.).
To “TCTAATTATTTGATATTAGTTATTTTCCTTAACATTCGTGCGGAGTCACCTAGTGCAG” belongs 49900 fluorescence intensity (a.u.).
Consider “GTACCTTTGATTAAAGGTAGTTTGGACCACAGTTGGTACACGGAGTCACCTAGTGCAG”, for which the binding signal is 3990 fluorescence intensity (a.u.).
To “ATGTCTGTATCTGTTATTGTTTCTATTGTGTCTGATCCAACGGAGTCACCTAGTGCAG” belongs 4690 fluorescence intensity (a.u.); to “TAAGCCTAATTAATCTATAATTAGAGAATGTTTACTGTAGCGGAGTCACCTAGTGCAG”, 39400 fluorescence intensity (a.u.); to “GGGAGTATATAATTTACAAATAACTAAAATTTGATATTAACGGAGTCACCTAGTGCAG”, 3630 fluorescence intensity (a.u.).
As for “GCTTTGACCACTAATCACCGGGTTAGGTCTAATGACTGTTCGGAGTCACCTAGTGCAG”, the binding signal is 12100 fluorescence intensity (a.u.).
Regarding “AAACTCTAACATTTAGAGATTAGGGATATGTAGTTGGTTTCGGAGTCACCTAGTGCAG”, the binding signal is 3290 fluorescence intensity (a.u.).
